Source: patent publication US20230272055A1, “ANTI-MUTANT CALRETICULIN (CALR) ANTIBODIES AND USES THEREOF” (Incyte Corporation, priority 2021, published 2023)
Substitutions are numbered along the chain they refer to.

B1: 84 (antibody)
heavy: EVQLVQSGAEVKKPGASVKVSCKVSGYTLTELSMQWVRQAPGKGLEWMGGFDPDDAETMYAEKFQGRLTVTEDTSTDTVYMELSSLRSEDTAVYFCATSPGYDFFDYWGQGTLVTVSSASTKGPSVFPLAPSSKSTSGGTAALGCLVKDYFPEPVTVSWNSGALTSGVHTFPAVLQSSGLYSLSSVVTVPSSSLGTQTYICNVNHKPSNTKVDKRV[omitted - human IgG1 Fc with changes]
light: SYVLTQPPSVSVAPGKTARITCGGNNIGSKSVHWYQQKPGQAPVLVVYDDSDRPSGIPERFSGSNSGNTATLTISRVEAGDEADYYCQVWDSSNDLLIFGGGTKLTVLGQPKAAPSVTLFPPSSEELQANKATLVCLISDFYPGAVTVAWKADSSPVKAGVETTTPSKQSNNKYAASSYLSLTPEQWKSHRSYSCQVTHEGSTVEKTVAPTECS
B2: 179 (antibody)
heavy: EVQLVQSGAEVKKPGASVKVSCKVSGYTLTELSMQWVRQAPGKGLEWMGGFDPDDAETMYAEKFQGRLTVTEDTSTDTVYMELSSLRSEDTAVYFCATSPGYDFFDYWGQGTLVTVSSASTKGPSVFPLAPSSKSTSGGTAALGCLVKDYFPEPVTVSWNSGALTSGVHTFPAVLQSSGLYSLSSVVTVPSSSLGTQTYICNVNHKPSNTKVDKRV[omitted - human IgG1 Fc with changes]
light: B1 light with K16Q, N25S, N26D, S29D, K30E, S31I, V77A, E78Q, N94S, L96H
B3: 61 (antibody)
heavy: EVQLVQSGAEVKKPGASVKVSCKVSGYTLTELSMQWVRQAPGKGLEWMGGFDPDAGETMYAEKFQGRLTVTEDTSTDTVYMELSSLRSEDTAVYFCATSPGYDFFDYWGQGTLVTVSSASTKGPSVFPLAPSSKSTSGGTAALGCLVKDYFPEPVTVSWNSGALTSGVHTFPAVLQSSGLYSLSSVVTVPSSSLGTQTYICNVNHKPSNTKVDKRV[omitted - human IgG1 Fc with changes]
light: QSALTQPASVSGSPGQSITISCTGTSSDVGGYNYVSWYQQHPGKAPKLMIYEVSNRPSGVSNRFSGSNSGNTATLTINRVEAGDEADYYCQVWDSSNDLLIFGGGTKLTVLGQPKAAPSVTLFPPSSEELQANKATLVCLISDFYPGAVTVAWKADSSPVKAGVETTTPSKQSNNKYAASSYLSLTPEQWKSHRSYSCQVTHEGSTVEKTVAPTECS
B4: 174 (antibody)
heavy: EVQLVQSGAEVKKPGASVKVSCKVSGYTLTELSMQWVRQAPGKGLEWMGGFDPDDAETMYAEKFQGRLTVTEDTSTDTVYMELRSLTSEDTALYFCATSPGYDFFDYWGQGTLVTVSSASTKGPSVFPLAPSSKSTSGGTAALGCLVKDYFPEPVTVSWNSGALTSGVHTFPAVLQSSGLYSLSSVVTVPSSSLGTQTYICNVNHKPSNTKVDKRV[omitted - human IgG1 Fc with changes]
light: B1 light with K16Q, N25S, N26D, S29D, K30E, S31I, V77A, E78Q, N94S, L96H
B5: 178 (antibody)
heavy: EVQLVQSGAEVKKPGASVKVSCKVSGYTLTELSMQWVRQAPGKGLEWMGGFDPDEGETMYAEKFQGRLTVTEDTSTDTVYMELSSLRSEDTAVYFCATSPGYDFFDYWGQGTLVTVSSASTKGPSVFPLAPSSKSTSGGTAALGCLVKDYFPEPVTVSWNSGALTSGVHTFPAVLQSSGLYSLSSVVTVPSSSLGTQTYICNVNHKPSNTKVDKRV[omitted - human IgG1 Fc with changes]
light: B1 light with K16Q, N25S, N26D, S29D, K30E, S31I, V77A, E78Q, N94S, L96H
B6: 75 (antibody)
heavy: EVQLVQSGAEVKKPGASVKVSCKVSGYTLTELSMQWVRQAPGKGLEWMGGFDPDDGETMYAEKFQGRLTVTEDTSTDTVYMELRSLTSEDTALYFCATSPGYDFFDYWGQGTLVTVSSASTKGPSVFPLAPSSKSTSGGTAALGCLVKDYFPEPVTVSWNSGALTSGVHTFPAVLQSSGLYSLSSVVTVPSSSLGTQTYICNVNHKPSNTKVDKRV[omitted - human IgG1 Fc with changes]
light: B1 light
B7: 189 (antibody)
heavy: EVQLVQSGAEVKKPGASVKVSCKVSGYTLTELSMQWVRQAPGKGLEWMGGFDPDDAETMYAEKFQGRLTVTEDTSTDTVYMELSSLRSEDTAVYFCATSPGYDFFDYWGQGTLVTVSSASTKGPSVFPLAPSSKSTSGGTAALGCLVKDYFPEPVTVSWNSGALTSGVHTFPAVLQSSGLYSLSSVVTVPSSSLGTQTYICNVNHKPSNTKVDKRV[omitted - human IgG1 Fc with changes]
light: B1 light with K16Q, N25S, N26D, S29D, K30E, S31I, N94S, L96H
B8: 58 (antibody)
heavy: EVQLVQSGAEVKKPGASVKVSCKVSGYTLTELSMQWVRQAPGKGLEWMGGFDPDEGETMYAEKFQGRLTVTEDTSTDTVYMELRSLTSEDTALYFCATSPGYDFFDYWGQGTLVTVSSASTKGPSVFPLAPSSKSTSGGTAALGCLVKDYFPEPVTVSWNSGALTSGVHTFPAVLQSSGLYSLSSVVTVPSSSLGTQTYICNVNHKPSNTKVDKRV[omitted - human IgG1 Fc with changes]
light: B3 light
B9: 66 (antibody)
heavy: EVQLVQSGAEVKKPGASVKVSCKVSGYTLTELSMQWVRQAPGKGLEWMGGFDPDAGETMYAEKFQGRLTVTEDTSTDTVYMELRSLTSEDTALYFCATSPGYDFFDYWGQGTLVTVSSASTKGPSVFPLAPSSKSTSGGTAALGCLVKDYFPEPVTVSWNSGALTSGVHTFPAVLQSSGLYSLSSVVTVPSSSLGTQTYICNVNHKPSNTKVDKRV[omitted - human IgG1 Fc with changes]
light: SYVLTQPPSVSVAPGKTARITCTGTSSDVGGYNYVSWYQQKPGQAPVLVVYEVSNRPSGIPERFSGSNSGNTATLTISRVEAGDEADYYCQVWDSSNDLLIFGGGTKLTVLGQPKAAPSVTLFPPSSEELQANKATLVCLISDFYPGAVTVAWKADSSPVKAGVETTTPSKQSNNKYAASSYLSLTPEQWKSHRSYSCQVTHEGSTVEKTVAPTECS
B10: 183 (antibody)
heavy: EVQLVQSGAEVKKPGASVKVSCKVSGYTLTELSMQWVRQAPGKGLEWMGGFDPDEGETMYAEKFQGRLTVTEDTSTDTVYMELRSLTSEDTALYFCATSPGYDFFDYWGQGTLVTVSSASTKGPSVFPLAPSSKSTSGGTAALGCLVKDYFPEPVTVSWNSGALTSGVHTFPAVLQSSGLYSLSSVVTVPSSSLGTQTYICNVNHKPSNTKVDKRV[omitted - human IgG1 Fc with changes]
light: B1 light with K16Q, N25S, N26D, S29D, K30E, S31I, N94S, L96H

What follows are molecules tested against T1, recombinant MBP-mutCALR Type 1 fusion protein (Homo sapiens, UniProt P27797, DEL40-40) (assay: Biacore SPR binding kinetics, Experiment 2 (parental and variant antibodies)). Settings: Biacore 8K, 25° C., 1:1 binding model.
T1 construct: His6 (N); purchased Cepter (cepterbiopartners.com), custom made
Experimental: The amino acid sequence of recombinant MBP-mutCALR Type 1 fusion protein used in Experiments 1 and 2 is:
Experiment 2: Recombinant MBP-mutCALR Type 1 fusion protein was custom made at Cepter (cepterbiopartners.com). Data for the interaction of antibodies with recombinant mutCALR protein were collected at 25° C. on a Biacore 8K instrument (Cytiva, Marlborough, Mass.), and all reagents were obtained from Cytiva unless otherwise specified. The experiments were conducted using Tris-buffered saline (pH 7.2), 0.005% Surfactant P20, 1 mM CaCl2) as running buffer. To prepare the capture surfaces, anti-human IgG (Fc) antibodies (Product #29234600) was amine-coupled onto a CM4 chip (Product #BR100534) under standard conditions using an Amine Coupling Kit (Product #BR100050). Anti-mutCALR antibodies were captured onto the chip surface by injecting over flow cell 2 only at a flow rate of 10 μL/min for 30 seconds. […] Recombinant MBP-mutCALR Type 1 fusion protein was prepared at nominal concentrations of 0, 0.75, 2.22, 6.67, 20, and 60 nM and injected over both flow cells 1 and 2 for 150 seconds at a flow rate of 69 L/min, followed by a 230-second dissociation phase at the same flow rate. The kinetics parameters were obtained by applying 1:1 binding model to fit the data from multiple-cycle injection experiments using Biacore Insight Evaluation software.

| ka [M⁻¹ s⁻¹] | kd [s⁻¹] | Molecule |
| --- | --- | --- |
| 892000 | 0.0018 | B1 |
| 1e+07 | 0.00681 | B2 |
| 4.13e+06 | 0.00369 | B3 |
| 7.8e+06 | 0.0041 | B4 |
| 1.02e+06 | 0.00123 | B5 |
| 6.12e+06 | 0.0039 | B6 |
| 1e+07 | 0.0153 | B7 |
| 6.76e+06 | 0.00232 | B8 |
| 3.54e+06 | 0.00836 | B9 |
| 1.23e+06 | 0.00124 | B10 |
